From the supplement of paper PMC10126150
Sequences with one replicate were seen in a single cluster, so their values are uncertain.
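Further: ATP exposure 15 min at 22 °C before imaging.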

Each sequence was assayed on ATP (assay: switch fluorescence ratio, 500 uM ATP over buffer (Cy3 cluster intensity, sum of 5 cycles each) (fold (ratio)); higher = stronger signal-on switching upon ATP binding; sequences stand for … in TCGTCGGCAGCGTCAGATGTGTATAAGAGACAGTTTTTTTTTTTTTTTTTTTTTTTTT…TC). Details: aptamer strand: ATP DNA aptamer (quencher-CACCTGGGGGAGTATTGCGGAGGAAGG + anchor), 100 nM annealed; ATP concentration: 500 uM; one replicate.
Outline: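 Clusters with intensities outside 100-1000 RFU were excluded. The remaining Cy3-labelled switching-strand clusters on a modified Illumina MiSeq flow-cell had been annealed to 100 nM quencher-labelled ATP aptamer and imaged in selection buffer, then after 15 min with 500 uM ATP at 22 °C, for five cycles separated by NaOH stripping and re-annealing. The fluorescence ratio, averaged per switch-domain sequence, is each cluster's summed target-cycle Cy3 intensity over its summed buffer-cycle Cy3 intensity.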
TGGGCGTACG was tested, and the switch fluorescence ratio was 0.987. TGGGCTCACT was tested, and the switch fluorescence ratio was 1.01. Sequence TGGGGAAGGC has a switch fluorescence ratio of 1.03. Work on TGGGGACGGC yielded a switch fluorescence ratio of 0.976. For TGGGGATGC, the switch fluorescence ratio was 0.954. In the case of TGGGGCAGAT, the switch fluorescence ratio was 1.02. TGGGGCGATC showed a switch fluorescence ratio of 1.06. For TGGGGCGCAG, the switch fluorescence ratio was 0.991. Work on TGGGGCTATC yielded a switch fluorescence ratio of 0.985. TGGGGCTCTG gave a switch fluorescence ratio of 0.971. In the case of TGGGGGAAT, the switch fluorescence ratio was 1.02. TGGGGGCCG showed a switch fluorescence ratio of 0.973. TGGGGTATGA gave a switch fluorescence ratio of 1. TGGGGTTACG gave a switch fluorescence ratio of 0.991. With TGGGTACTGA the switch fluorescence ratio was 0.978. Work on TGGGTAGATG yielded a switch fluorescence ratio of 1.01. Sequence TGGGTCAAGA has a switch fluorescence ratio of 0.957. With TGGGTCACCT the switch fluorescence ratio was 1.02. With TGGGTCTGTG the switch fluorescence ratio was 0.956. TGGGTCTTCC was tested, and the switch fluorescence ratio was 1.16. With TGGGTGACT the switch fluorescence ratio was 0.99. In the case of TGGGTGAGAG, the switch fluorescence ratio was 0.972. TGGGTGTTCG gave a switch fluorescence ratio of 1.04. For TGGGTTGAAC, the switch fluorescence ratio was 1. In the case of TGGGTTTGAA, the switch fluorescence ratio was 1.01. TGGTAAAGTC gave a switch fluorescence ratio of 1.01. Work on TGGTAAGGTT yielded a switch fluorescence ratio of 0.964. For TGGTAAGTTA, the switch fluorescence ratio was 0.981. With TGGTAATCTT the switch fluorescence ratio was 0.989. TGGTACACAG showed a switch fluorescence ratio of 0.971. With TGGTATCTAC the switch fluorescence ratio was 1. With TGGTATGAGA the switch fluorescence ratio was 1.01. TGGTCAAATG gave a switch fluorescence ratio of 1.02. TGGTCAAG was tested, and the switch fluorescence ratio was 0.982. With TGGTCCGACA the switch fluorescence ratio was 1.05. TGGTCCGTCG showed a switch fluorescence ratio of 1.08. With TGGTCGACC the switch fluorescence ratio was 1.02. In the case of TGGTCGGACG, the switch fluorescence ratio was 1.06. For TGGTCTAGGC, the switch fluorescence ratio was 0.979. For TGGTCTGTA, the switch fluorescence ratio was 1.02. Sequence TGGTGACCGC has a switch fluorescence ratio of 1.05. TGGTGCTTTA was tested, and the switch fluorescence ratio was 1.22. For TGGTGGGACT, the switch fluorescence ratio was 1.02. Work on TGGTGTAGG yielded a switch fluorescence ratio of 1.03. Work on TGGTGTCGCT yielded a switch fluorescence ratio of 1.01. With TGGTGTTGGC the switch fluorescence ratio was 0.977. For TGGTGTTGTG, the switch fluorescence ratio was 0.991. Sequence TGGTTACACT has a switch fluorescence ratio of 0.971. Sequence TGGTTACCTG has a switch fluorescence ratio of 0.984. TGGTTACTGC gave a switch fluorescence ratio of 1.07. TGGTTAGGAC showed a switch fluorescence ratio of 0.987. TGGTTCATGG gave a switch fluorescence ratio of 1.14. TGGTTCCCGG was tested, and the switch fluorescence ratio was 0.973. In the case of TGGTTCCGCT, the switch fluorescence ratio was 1.13. In the case of TGGTTTACCG, the switch fluorescence ratio was 1. TGGTTTCAAC was tested, and the switch fluorescence ratio was 1.07. TGGTTTCATA showed a switch fluorescence ratio of 0.988. With TGGTTTCCGC the switch fluorescence ratio was 1.07. For TGGTTTGCAC, the switch fluorescence ratio was 1.12. With TGGTTTGGAC the switch fluorescence ratio was 1.01. In the case of TGGTTTTCCG, the switch fluorescence ratio was 0.992. TGGTTTTGTA showed a switch fluorescence ratio of 1.05. With TGGTTTTTCG the switch fluorescence ratio was 0.959. Sequence TGTAAAACAT has a switch fluorescence ratio of 1.05. TGTAAACCGT showed a switch fluorescence ratio of 1.16. With TGTAAGCTAT the switch fluorescence ratio was 1.01. Work on TGTAAGCTGC yielded a switch fluorescence ratio of 1.04. For TGTAAGTCCT, the switch fluorescence ratio was 0.989. TGTAATACAG was tested, and the switch fluorescence ratio was 1.05. TGTACCCAGA was tested, and the switch fluorescence ratio was 1.08. With TGTACCCCTC the switch fluorescence ratio was 1.01. Work on TGTACCT yielded a switch fluorescence ratio of 1.27. In the case of TGTACTGGG, the switch fluorescence ratio was 0.982. Sequence TGTAGGGATG has a switch fluorescence ratio of 0.976. TGTAGGGCTG gave a switch fluorescence ratio of 1. Sequence TGTAGGGGA has a switch fluorescence ratio of 0.931. Work on TGTAGGTCTC yielded a switch fluorescence ratio of 1.06. TGTAGTACTC was tested, and the switch fluorescence ratio was 2.25. Work on TGTAGTATGG yielded a switch fluorescence ratio of 0.985. Sequence TGTAGTCTGC has a switch fluorescence ratio of 0.985. In the case of TGTATAAGCC, the switch fluorescence ratio was 0.971. With TGTATAGGTT the switch fluorescence ratio was 0.968. In the case of TGTATCGATA, the switch fluorescence ratio was 0.999. For TGTATGAAAA, the switch fluorescence ratio was 1.02. With TGTATGCCT the switch fluorescence ratio was 1.04. Sequence TGTATGGATA has a switch fluorescence ratio of 0.999. TGTATGTTAA showed a switch fluorescence ratio of 1.01. TGTATTCAAC gave a switch fluorescence ratio of 1. In the case of TGTATTTAGT, the switch fluorescence ratio was 1. For TGTATTTGAA, the switch fluorescence ratio was 1.01. Work on TGTCAAACTA yielded a switch fluorescence ratio of 0.994. Sequence TGTCAACAGG has a switch fluorescence ratio of 1.08. For TGTCACTAAC, the switch fluorescence ratio was 1.14. Work on TGTCACTTG yielded a switch fluorescence ratio of 1.02. TGTCAGAAGG gave a switch fluorescence ratio of 1.01. With TGTCAGCCTT the switch fluorescence ratio was 1.01. TGTCATACGG showed a switch fluorescence ratio of 0.975. TGTCCAAGGA gave a switch fluorescence ratio of 1.02. Sequence TGTCCCAG has a switch fluorescence ratio of 1.02. TGTCCGAAGT gave a switch fluorescence ratio of 1.1.
